In all, about 33,000 sequences were measured (“E-score (-0.5 to 0.5)”: median about -0.056, highest 2% from about 0.38 on). Some of the results follow.
Target: Stb4 (UniProt P50104)
Assay: PBM E-score (8-mer binding enrichment) (E-score (-0.5 to 0.5)); higher = stronger / more preferred TF binding; most listed sequences are background and not binding sites
Conditions: protein concentration: 200 nM; construct: GST-DNA-binding domain
Experimental: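 Universal 'all 10-mer' protein binding microarrays (Agilent AMADID 015681) probed with GST-tagged S. cerevisiae TFs (full-length or DBD) made by in vitro transcription/translation (PURExpress), about 100-200 nM. Bound TF was detected with fluorescent anti-GST. Each ungapped 8-mer (which stands for itself and its reverse complement) is scored by the PBM enrichment score (E-score), a modified Wilcoxon-Mann-Whitney statistic from -0.5 to +0.5, computed with the Universal PBM Analysis Suite. Scale: above 0.35 generally sequence-specific binding.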

| Sequence | PBM E-score |
| --- | --- |
| ATTTGACG | -0.0225 |
| CCTCCCTC | 0.0321 |
| GCAACTCC | 0.0985 |
| ATCAGATG | -0.253 |
| GAACCCAA | -0.0995 |
| CTACGCCC | -0.207 |
| CTATAAAC | 0.055 |
| AACGGGAT | 0.246 |
| TAGTTCGA | -0.239 |
| AGTAGGGC | -0.0403 |
| CCACCAGG | -0.0205 |
| ACCCTTTG | -0.0784 |
| CGTTTTAC | -0.0166 |
| GCGCGAAC | 0.0411 |
| CAAAGTCG | -0.12 |
| AGTGGTAG | -0.182 |
| ATTGTGCC | 0.0107 |
| ATGGTAGG | -0.196 |
| TCCAACGA | -0.254 |
| ACCGAAAC | 0.372 |
| CTAGATTA | -0.0747 |
| CAGTACGA | -0.154 |
| CTTAGGGC | -0.0343 |
| ACGCCGGG | 0.169 |
| AGATCATG | -0.308 |

| Sequence | PBM E-score |
| --- | --- |
| ACCCAGCT | -0.0119 |
| AGGTCACC | -0.167 |
| CAATGTAG | -0.0387 |
| GACGTAGA | -0.0865 |
| AGCCAGAG | -0.0497 |
| AATAATAC | 0.0362 |
| CCTGTCTC | -0.0614 |
| AAGTGCAC | -0.0475 |
| GCGACTTA | 0.0574 |
| ACACGCTA | -0.051 |
| CGATAAAG | 0.0416 |
| CTCCGTAC | 0.0911 |
| AGTCATGA | -0.0251 |
| GTGAGTAA | -0.197 |
| GTCCTAAA | -0.132 |
| ACCGGGGG | 0.229 |
| ACGTCGCC | -0.082 |
| ATTAAATC | 0.0847 |
| GTATAATA | 0.132 |
| ATTGATTA | -0.00822 |
| GTGTACAC | -0.283 |
| TACAGGCA | -0.181 |
| CGTGTTAC | -0.0336 |
| AGGGCATA | -0.0963 |
| GACTAGAA | 0.0402 |

| Sequence | PBM E-score |
| --- | --- |
| ATCGGCGG | 0.327 |
| CTTGGGTA | 0.0184 |
| ACATCAGC | -0.00689 |
| CGGACCCC | 0.167 |
| CTTCGAAC | -0.00115 |
| GACTCACC | -0.0865 |
| GCCACTCA | -0.167 |
| TATAGGAA | -0.246 |
| CAGTTGTC | -0.199 |
| GTATCAGA | -0.145 |
| GGACTGCA | -0.179 |
| ATGTCAAT | 0.0529 |
| GTCCCCAC | -0.164 |
| GAGTGGTA | -0.163 |
| AGCCTGCG | -0.0648 |
| AATCGAAC | -0.162 |
| AAACTAAT | 0.0849 |
| GTTACAAC | 0.0535 |
| ATCTTCGG | 0.423 |
| ACGTGCCT | -0.15 |
| ATTTGGGA | -0.202 |
| ATCCCATC | -0.104 |
| ATCAAAGA | -0.287 |
| GATTCGGC | 0.393 |
| CCCTAGAG | -0.196 |

| Sequence | PBM E-score |
| --- | --- |
| GCCTATCC | 0.13 |
| TAACGACA | -0.19 |
| GTAGCTCA | -0.112 |
| AGTACCCC | -0.0332 |
| AGGATGGA | 0.0445 |
| ATTGCAAT | 0.0191 |
| ATCGACAA | 0.083 |
| AGCATGTC | -0.111 |
| GGATAACA | 0.181 |
| ACGTTCAA | -0.106 |
| ATATTAGG | -0.141 |
| CGCTGTGC | 0.0871 |
| CAACATCC | 0.213 |
| CGACAAGC | -0.0511 |
| CCGGGAGC | 0.278 |
| AGGCTGAG | -0.132 |
| CCAAAGTA | 0.0417 |
| GAAGTTAA | 0.0385 |
| CAAACCAC | -0.176 |
| ACATCAAT | -0.173 |
| AAATACAT | -0.251 |
| ACAACTGC | -0.185 |
| AGGGACCT | -0.215 |
| ATGATCTG | -0.207 |
| CCTGATCG | -0.00686 |

| Sequence | PBM E-score |
| --- | --- |
| AAATTGAT | 0.142 |
| ATTTGTGA | -0.0937 |
| TCCTGCCA | -0.213 |
| GAGCTAAA | -0.0964 |
| ACCTCCAA | -0.439 |
| ATGGAAAA | 0.02 |
| ACGGGTCA | 0.0265 |
| AAACCCAG | -0.209 |
| ACATCAAC | 0.0408 |
| CCACCAAG | -0.0994 |
| AATAACAC | 0.0778 |
| GACCAAGC | -0.107 |
| ATCAATGC | -0.0158 |
| AACATCCA | -0.0721 |
| GGACAAAC | -0.162 |
| ATAGCCAG | -0.358 |
| GAAAAGGA | 0.00735 |
| AGAGAGAA | -0.168 |
| AAAAGGCC | -0.167 |
| CTGATGGA | -0.205 |
| CCGGCTGC | 0.272 |
| CAATAAAA | -0.0756 |
| AATCTCTG | -0.17 |
| AAAGCTTT | 0.174 |
| AGTACGGA | 0.194 |

| Sequence | PBM E-score |
| --- | --- |
| ACTCAGAC | -0.368 |
| AAAACAGT | 0.0431 |
| ACAGCCCG | 0.135 |
| ATAGTCTC | -0.144 |
| ACGCCTTG | -0.106 |
| AGTCTGAA | -0.24 |
| ACACAGAG | -0.198 |
| CCGTTATA | 0.00967 |
| GATAGCAA | -0.00338 |
| ATGCATTA | 0.0561 |
| AGGACAAT | -0.0514 |
| ACTGAGCC | -0.0323 |
| CTGTAGAA | -0.0631 |
| AGAGGAAA | -0.0307 |
| GAGTCAGA | -0.116 |
| AAAAACGG | 0.171 |
| CCAATTAA | -0.218 |
| AGTGTTAA | -0.107 |
| ACTAACAG | -0.133 |
| AACTCCGA | 0.412 |
| GGTAAAAC | 0.0434 |
| ACAATCCG | 0.276 |
| ATGGAGGA | -0.118 |
| GAGGCCTA | 0.0115 |
| AGGGCGCA | -0.261 |

| Sequence | PBM E-score |
| --- | --- |
| CTGAGCGA | -0.092 |
| CACGTATC | -0.154 |
| CAGGGTCA | -0.2 |
| CAGAGAGA | -0.267 |
| AAATCCAA | -0.0495 |
| ATAACTGG | -0.0233 |
| GAAGGAGA | -0.138 |
| CTAGCAAG | -0.344 |
| GGAGAACA | -0.00318 |
| CAAACCTG | -0.205 |
| AGAAATTC | -0.0386 |
| ACCACCAC | -0.125 |
| AGCTAAGG | -0.114 |
| AAATCGCA | -0.11 |
| GCAGATTA | 0.0108 |
| CAGTGCCG | 0.254 |
| CGGGGTAG | 0.187 |
| AATTATTC | 0.152 |
| CAAGGTGG | -0.0134 |
| CACAACGA | 0.0887 |
| CCTTGTGA | -0.0811 |
| CGCTGCCC | 0.0661 |

From the supplement of paper PMC3334620
